Laboratory results taken from PubChem BioAssay AID1508623 (National Center for Advancing Translational Sciences (NCATS), 2021).
Among all 48,000 compounds or so, about 450 (0.94%) were called active. Not shown: some 19% with an inconclusive outcome. The call rests on the fitted dose curve; in most records, active means well fitted inhibition curve with a large enough effect; inconclusive means small, poorly fitted or top-dose-only effect; inactive means no such curve, though single readings can be large or run the other way. The list shows a part of the results.

Test: Primary qHTS for Identification of Small Molecule Inhibitors of Huntingtin Promoter Activity; further: nearly all actives have a fitted effect of over 50% in size
Conditions: HEK293 HTT promoter firefly luciferase reporter (activity 0% = vehicle and -100% = no light), 24 h; series mostly up to 57.5 µM; activity change, negative = inhibition: at the top concentration
Procedure, shortened: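 HEK293 Fluc reporter, 2,500 cells/well, 24 h pre-culture; cpds up to 57.5 uM final, 24 h 37 degrees C; Dual-Glo, 10 min RT; normalized vehicle = 0%, zero RLU = -100%.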

Activity change, negative = inhibition, inactive:
Cc1ccc(C(=O)c2oc3ccccc3c2NC(=O)COc2ccc(C(C)C)cc2)cc1 7.29%
O=C(Nc1ccc(S(=O)(=O)Nc2ncccn2)cc1)c1cc(=O)c2ccccc2o1 -12.5%
CCN(CC)C(=O)Cn1c(=O)cc(C)c2c(C)nn(-c3ccc(C)cc3)c21 0%
CC(C)c1nn2c(=O)cc(COC(=O)c3ccc(NC(=O)C4CCCCC4)cc3)nc2s1 -12.6%
Cc1ccc(CSc2ncc(Cl)c(C(=O)NCc3ccccc3)n2)cc1 1.33%
COc1ccc2[nH]c3c(c2c1)CCN(C(=O)c1cccc(Cl)c1)C3c1ccc(F)cc1 (stereo not given) -23.6%
Cc1nc2sccn2c(=O)c1S(=O)(=O)Nc1cc(Cl)ccc1O -10.3%
CCOC(=O)c1cc(-c2ccc(F)cc2)n(CC(=O)NC2CCCCCC2)c1C -31.5%
Cc1ccc(CN(Cc2ccco2)C(=O)c2ccc(OCC(C)C)cc2)cc1 -21.9%
COc1ccc(NC(=O)c2c(NC(=O)COc3ccccc3)sc3c2CCC(C(C)(C)C)C3)cc1 (stereo not given) -11.7%
CCCCN1CCc2nc(Nc3ccc(OC)cc3OC)ncc2C1 -17.1%
Cc1ccc(C)c(N2CCN(C(=O)c3cc4c(=O)n(Cc5ccccc5)ccc4nc3C)CC2)c1 -29.7%
Cc1ccc2c(c1)N(C(=O)N1CCC(C(=O)NCCc3ccc(Cl)cc3)CC1)CC(C)O2 (stereo not given) -11%
CCOc1cccc2c1N[C@@H](c1ccc(C(=O)O)cc1)[C@H]1CC=C[C@@H]21 7.17%
Cc1ccc(-n2nc(C)c3c(C)c(CCC(=O)NCc4ccccc4Cl)c(C)nc32)cc1C -7.75%
CCc1ccc(NC(=O)CN2C(=O)C(c3ccc(C)cc3)=NC23CCCCC3)cc1 -28.9%
Cc1cccc(Cn2cccc2CNS(=O)(=O)c2ccccc2F)c1 -8.49%
CCc1ccc(CNC(=O)Cn2nc(C)n3c(cc4cc(C)ccc43)c2=O)cc1 -3.83%
COc1ccc(NC(=O)C(Cc2ccccc2)NS(=O)(=O)c2ccc3c(c2)CCC(=O)N3)c(OC)c1 (stereo not given) -10.2%
CCCCOc1ccc(C2=NC(c3ccncc3)=Nc3ccc(OCC)cc3N2)cc1 -2.92%
CCOc1ccccc1CNC(=O)C1CCN(c2nnc(-n3c(C)ccc3C)s2)CC1 -15%
O=C(Cn1c(=O)n(CC2CCC(C(=O)NCCc3ccccc3)CC2)c(=O)c2ccccc21)Nc1ccccc1 (stereo not given) -2.69%
Cc1ccc2c(Cl)cc(Cl)c(O)c2n1 8.28%
Cc1cc(C)n2nc(CNS(=O)(=O)c3ccc(C)c(C)c3)nc2n1 5.06%
CC(C)OCCCn1c(SCC(=O)c2ccccc2)nc2c(sc3ccccc32)c1=O -21.6%
COc1ccc(NC(=O)CSc2nc3nc(C)c(Cc4ccccc4)c(C)n3n2)cc1OC -25.5%
CCN(CC)CCOC(=O)c1ccc(NC(=O)Cn2ncc3c2-c2cc(C)ccc2OC3)cc1 -23.9%
CCOc1ccc(C2CC(c3c(O)n(C4CCCCC4)c(=O)[nH]c3=O)=Nc3ccccc3S2)cc1 (stereo not given) -52.4%
O=C(Nc1sc2c(c1C(=O)NCc1cccnc1)CCCC2)c1cc(=O)c2ccccc2o1 -7.29%
Cc1ccc2nc(COc3ccccc3NC(=O)C(C)(C)C)cc(=O)n2c1 -7.3%
O=C(CSc1nnc2ccc3ccccc3n12)Nc1ccccc1Cl 46.5%
O=C(Cc1ccc(F)cc1)NCc1ccc2c(c1)CCN2C(=O)c1ccc(F)cc1 -19.7%
COc1cccc2c1cc1c(=O)n(CC(=O)NCc3ccc(C)o3)nc(C)n12 -2.9%
O=C(COc1ccc(Cl)cc1)Nc1ccc2nc(SCC(=O)N3CCCC3)sc2c1 -25.9%
Cc1nn(C(=O)c2cccc(Cl)c2)c(C)c1S(=O)(=O)N1CCOCC1 -19%
CCn1c(=O)cc(SCC(=O)NCc2ccc(OC)cc2OC)c2ccccc21 -12.3%
COc1ccc(CCNC(=O)C(=O)NCC(c2ccco2)S(=O)(=O)c2cccs2)cc1OC (stereo not given) -16.9%
CCC(=O)N1CCc2cc(S(=O)(=O)NC(CC(C)C)C(=O)NCCc3ccccc3)ccc21 (stereo not given) -22.1%
O=C(c1nc(-c2ccc(Cl)cc2)n2c1CCCCC2)N1CCN(c2ccccc2)CC1 -75.9% [at 11.5 µM]
O=C(COc1ccccc1-c1nc(-c2ccccc2)no1)Nc1cccc([N+](=O)[O-])c1 -10.4%
OC(CCN1CCCCC1)(c1ccccc1)C1CCCCC1 (stereo not given) -14.8%
COc1ccc(NC(=O)c2cc3c([nH]c2=O)CC(c2ccccc2)CC3=O)cc1 (stereo not given) 4.33%
COc1ccc(NC(=O)Cn2c(=O)n(-c3ccc(CC(=O)NCC4CCCO4)cc3)c(=O)c3ccccc32)c(OC)c1 (stereo not given) -7.3%
CCCOc1ccc(OC(=O)c2c(-c3ccccc3Cl)noc2C)cc1 -9.9%
COc1ccc(NC(=O)c2ccc3c(c2)c(C)c(C)n3Cc2ccc(F)cc2)c(OC)c1 -26.2%
COc1ccc(C2=Nn3c(nc4sc(C(=O)Nc5cccc(C)c5)c(C)c4c3=O)SC2)cc1 -21.8%
COc1ccc(-c2nn3c(-c4ccc(C)cc4)nnc3c3ccccc23)cc1 -0.664%
COc1cccc(CN2C(=O)c3ccccc3Sc3ccc(C(=O)NCCc4ccc(Cl)cc4)cc32)c1 -23.6%
CCc1ccc(OCC(=O)N(Cc2ccco2)Cc2ccco2)cc1 -11.8%
O=C(C1CCN(c2nc3ccccc3[nH]2)CC1)N1CCN(c2ccccc2)CC1 -7.06%
Cc1cc(C)cc(OCc2cc(=O)n3cc(C)sc3n2)c1 -1.8%
COc1nc(-c2ccc3c(c2)OCO3)n(-c2ccc(NC(=O)CSc3ccccc3)cc2)n1 2.59%
Cc1cccc(NCc2nnc3n2CCCCC3)c1C -7.14%
CCCN1CCN(CCCNC(=O)c2ccc3c(c2)sc2nc(-c4ccc(C)cc4)cn23)CC1 -29.9%
CN(C(=O)c1ccc2c(c1)N(Cc1ccccc1F)C(=O)c1ccccc1S2)C1CCCCC1 2.48%
CCOC(=O)c1c(C)n(-c2ccccc2)c2ccc(OC(=O)c3ccc(OCC)c(OCC)c3)cc12 -20.2%
Cc1cccc(-c2noc(-c3ccc(NCC4CCCO4)c([N+](=O)[O-])c3)n2)c1 (stereo not given) 14.6%
O=C(Nc1c(C(=O)N2CCC(N3CCCCC3)CC2)oc2ccccc12)c1c(F)cccc1F -9.12%
CN(C)S(=O)(=O)c1ccc2c(c1)N(CC(=O)N1CCCCC1)CCS2 -7.17%
Cc1ccc(-c2nnc(Nc3ccc(Cl)cc3)c3ccccc23)cc1S(=O)(=O)N1CCOCC1 -27.9%
